Consider 44 compounds from PMC4336329 (PLoS ONE, 2015).

In all, about 310,000 compounds went through this assay and about 14,000 (4.5%) showed an effect of 50% or more. Effects have a minus sign here. The list shows a part of the results.
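Further: peak tail current of the secondary pulse compared with the same well before compound.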

This assay deals with human ether-à-go-go-related gene (hERG) potassium channel (human, UniProt Q12809). Kind of assay: primary screen, population patch clamp on CHO cells stably expressing hERG.
human ether-à-go-go-related gene (hERG) potassium channel, sequence (Q12809 whole entry, looked up): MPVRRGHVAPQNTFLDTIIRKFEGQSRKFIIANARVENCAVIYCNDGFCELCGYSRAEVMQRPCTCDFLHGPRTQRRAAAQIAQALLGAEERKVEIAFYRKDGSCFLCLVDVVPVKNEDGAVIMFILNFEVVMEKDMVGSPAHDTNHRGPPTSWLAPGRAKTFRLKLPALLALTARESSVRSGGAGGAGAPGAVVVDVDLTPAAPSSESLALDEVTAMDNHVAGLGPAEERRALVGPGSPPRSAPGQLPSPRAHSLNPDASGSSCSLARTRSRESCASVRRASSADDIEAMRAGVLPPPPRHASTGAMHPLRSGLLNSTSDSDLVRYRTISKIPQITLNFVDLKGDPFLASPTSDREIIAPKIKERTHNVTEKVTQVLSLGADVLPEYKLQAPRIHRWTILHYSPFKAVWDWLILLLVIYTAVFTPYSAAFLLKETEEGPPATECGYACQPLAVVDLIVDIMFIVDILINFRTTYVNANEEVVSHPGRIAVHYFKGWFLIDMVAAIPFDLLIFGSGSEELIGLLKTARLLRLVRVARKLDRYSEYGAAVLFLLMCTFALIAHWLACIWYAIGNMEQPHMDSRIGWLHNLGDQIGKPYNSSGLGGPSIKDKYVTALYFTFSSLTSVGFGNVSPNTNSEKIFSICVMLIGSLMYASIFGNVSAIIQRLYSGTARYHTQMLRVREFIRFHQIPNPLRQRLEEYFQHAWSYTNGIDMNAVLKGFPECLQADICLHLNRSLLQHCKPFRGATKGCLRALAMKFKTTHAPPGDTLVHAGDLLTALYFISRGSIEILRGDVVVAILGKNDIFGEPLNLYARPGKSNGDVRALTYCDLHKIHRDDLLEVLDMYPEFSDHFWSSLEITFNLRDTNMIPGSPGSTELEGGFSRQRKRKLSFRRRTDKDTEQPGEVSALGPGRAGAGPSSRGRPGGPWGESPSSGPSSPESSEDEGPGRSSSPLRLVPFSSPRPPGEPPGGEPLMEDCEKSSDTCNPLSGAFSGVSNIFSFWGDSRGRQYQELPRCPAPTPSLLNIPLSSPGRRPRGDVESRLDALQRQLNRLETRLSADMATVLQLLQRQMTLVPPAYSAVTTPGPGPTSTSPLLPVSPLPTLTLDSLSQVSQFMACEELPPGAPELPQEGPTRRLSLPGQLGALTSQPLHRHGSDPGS
Consider `CCCn1nnc(NC(=O)c2ccc(OC)cc2)n1`, for which the “hERG current change (%, negative = inhibition) at 10uM” value was 2.42%.

`N#CCc1ccc(NC(=O)Nc2cccc(Cl)c2)cc1`: the “hERG current change (%, negative = inhibition) at 10uM” value is reported as 16.7%.

With `CCc1nnc(NC(=O)c2cccc(S(=O)(=O)N3CC(c4ccccc4)CC3=O)c2)s1` (centres unmarked), the “hERG current change (%, negative = inhibition) at 10uM” value is recorded as -0.242%. The figure for `O=C(N/C(=C/c1ccc(F)cc1)C(=O)N1CCCC1)c1ccccc1` is 19.5%; for `COc1ccc(Cc2nnc(NC(=O)c3ccccc3)s2)cc1OC` it is 9.01%. Turning to `CC(C)NC(=O)[C@@H]1CSC2c3ccccc3C(=O)N21` (some centres unmarked), the “hERG current change (%, negative = inhibition) at 10uM” value is recorded as 12.7%. The same measure for `O=C(CSc1ccc(Br)cc1)NCC(c1cccs1)N1CCOCC1` (centres unmarked): -19.1%. The same measure for `O=C(CCn1nnc2ccccc21)Nc1nnc(COc2ccc(F)cc2)s1`: 4.61%. The figure for `CN1CCN(Cc2c(O)ccc3cc(Br)ccc23)CC1` is -33.3%; for `Cc1noc(C)c1C1(O)CCCCCCCCCCC1` it is 19%; for `COc1ccc2nc(NCc3cccnc3)sc2c1` it is 0.921%. Regarding `COCCNC(=S)NC12CC3CC(CC(C3)C1)C2`, the “hERG current change (%, negative = inhibition) at 10uM” value came to 9.3%. On to `O=C(CNC(=O)c1cc(Cl)nc2ccccc12)Nc1ccccc1Br`, for which the “hERG current change (%, negative = inhibition) at 10uM” value is -8.08%.

For the compound `CC(C)CCN1CCN(Cc2cccn2-c2ccccn2)CC1CCO` (centres unmarked), the “hERG current change (%, negative = inhibition) at 10uM” value is on record as -75.5%. The figure for `COCCNC(=S)N1CCN(c2nc(-c3cccc(OC)c3)cs2)CC1` is -4.13%; for `Cc1ccccc1N(C)S(=O)(=O)c1nnc(NC(=O)c2ccco2)s1` it is 4.25%. The same measure for `CCC(=O)N1CCc2cc(S(=O)(=O)CCC(=O)N(C)c3ccc(OC)cc3OC)ccc21`: -11.7%; for `COc1ccc2c(c1)C(C)CC(C)(C)N2C(=O)CSc1ncn[nH]1` (centres unmarked): -10.9%; for `CN(CCCNS(=O)(=O)c1cccc2cccnc12)Cc1ccccc1`: -6.28%.

As to `COc1ccc(C2NC(=O)NC(O)(C(F)(F)F)C2C(=O)c2ccc(C)cc2)cc1` (centres unmarked), the “hERG current change (%, negative = inhibition) at 10uM” value is given as -4.52%. As for `COc1ccc(NC(=O)N2CCc3ccccc3C2)cc1OC`, the “hERG current change (%, negative = inhibition) at 10uM” value amounted to 11.3%. The figure for `COc1ccc2[nH]c(O)c(N=NC(=O)c3ccc(NS(=O)(=O)c4cccs4)cc3)c2c1` is 7.35%; for `CC(c1ccccn1)N(Cc1ccco1)C(=S)Nc1cccc(F)c1` (centres unmarked) it is -6.71%; for `C=CCn1c(SCc2csc(C)n2)nc2scc(-c3ccc(C)o3)c2c1=O` it is -14%.

Regarding `C=CCN1C(=O)c2ccccc2Sc2ccc(C(=O)NCC(OC)OC)cc21`, the “hERG current change (%, negative = inhibition) at 10uM” value was 7.24%.

Consider `COc1ccc(S(=O)(=O)Nc2cc3[nH]c(=O)oc3cc2C)cc1`, for which the “hERG current change (%, negative = inhibition) at 10uM” value is recorded as 14.7%. On to `CCOc1cc(N2CCOCC2)c(OCC)cc1NC(=O)COc1ccc2ccc(=O)oc2c1`, for which the “hERG current change (%, negative = inhibition) at 10uM” value is recorded as 6.18%. As for `CCOc1ccc2nc(SCc3ccc(OC)cc3)sc2c1`, the “hERG current change (%, negative = inhibition) at 10uM” value was 7.35%. The figure for `CN(C)S(=O)(=O)c1ccc(C(=O)OCCn2cnc3c2c(=O)n(C)c(=O)n3C)cc1` is -2.76%; for `O=C1OCCC1Sc1nnnn1-c1ccc(Cl)cc1` (centres unmarked) it is 2.19%; for `Cc1csc(NC(=O)c2ccc(C(=O)Nc3nc(C)cs3)cc2)n1` it is 0.962%. For the compound `Cc1ccc(SCCNC(=S)Nc2cc(C)cc(C)c2)cc1`, the “hERG current change (%, negative = inhibition) at 10uM” value was found to be 6.33%.

On to `CCOc1cc(-c2noc(-c3ccncc3)n2)cc(Br)c1OC`, for which the “hERG current change (%, negative = inhibition) at 10uM” value is listed as 4.5%. The same measure for `Cn1c(=O)c2c(nc(N3CCN(c4ccc([N+](=O)[O-])cc4)CC3)n2C)n(C)c1=O`: -76.2%; for `O=S(=O)(Cc1ccccc1)N(O)c1ccccc1`: 17.6%. The figure for `CCN(C(=O)c1ccc(NC(=O)c2ccco2)cc1)c1ccccc1` is 0.858%; for `CS(=O)(=O)Nc1cccc(C2=NN(C(=O)c3ccccc3)C(c3cccs3)C2)c1` (centres unmarked) it is -14%; for `Cn1cc([N+](=O)[O-])c(C(=O)Nc2nccs2)n1` it is 15.6%. The figure for `COCCN(CC(=O)Nc1cccc(C)c1C)C(=O)c1cc(S(=O)(=O)N2CCCC2)ccc1C` is -3.93%; for `Nc1cc(=O)nc(SCC(=O)N2CCN(c3ccccc3)CC2)n1-c1ccccc1` it is 18.3%. For `CC(Oc1cccc(Cl)c1)C(=O)NC1CC(C)(C)NC(C)(C)C1` (centres unmarked), the “hERG current change (%, negative = inhibition) at 10uM” value is reported as -2.65%. The same measure for `CC(C)(C)c1ccc(/C=C/C(=O)N2CCOCC2)cc1`: 1.09%; for `CN(C)CCCOC(=O)c1ccc(Cl)cc1Cl.Cl`: -38.8%. Turning to `CCOC(=O)Cn1c(=O)oc2cc(S(=O)(=O)NCCc3ccc(OCC)c(OCC)c3)ccc21`, the “hERG current change (%, negative = inhibition) at 10uM” value is -13.7%.
